Whole data set: some 110,000 compounds, median “z-score” near -0.1, cut for the highest 2% near 2. This is one part of the list. The source made the active and inactive calls.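 How the source made its calls: active means z-score in the third read window above 3 or below -3; inactive means the rest.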
Biological target: Metabotropic glutamate receptor 8 (Rattus norvegicus) (UniProt P70579)
Assay: mGluR8 Gi/Go-coupled signaling modulation – cell-based, rat, thallium flux, HTS, primary screen (AID 488969)
Settings: HEK293 rat mGluR8, GIRK (G protein-gated inwardly rectifying potassium channel) thallium flux, FluoZin2; at 10 µM; stronger effect = higher value; submaximal glutamate (EC20) added with thallium

Chain of UniProt P70579 (P70579 whole entry, looked up): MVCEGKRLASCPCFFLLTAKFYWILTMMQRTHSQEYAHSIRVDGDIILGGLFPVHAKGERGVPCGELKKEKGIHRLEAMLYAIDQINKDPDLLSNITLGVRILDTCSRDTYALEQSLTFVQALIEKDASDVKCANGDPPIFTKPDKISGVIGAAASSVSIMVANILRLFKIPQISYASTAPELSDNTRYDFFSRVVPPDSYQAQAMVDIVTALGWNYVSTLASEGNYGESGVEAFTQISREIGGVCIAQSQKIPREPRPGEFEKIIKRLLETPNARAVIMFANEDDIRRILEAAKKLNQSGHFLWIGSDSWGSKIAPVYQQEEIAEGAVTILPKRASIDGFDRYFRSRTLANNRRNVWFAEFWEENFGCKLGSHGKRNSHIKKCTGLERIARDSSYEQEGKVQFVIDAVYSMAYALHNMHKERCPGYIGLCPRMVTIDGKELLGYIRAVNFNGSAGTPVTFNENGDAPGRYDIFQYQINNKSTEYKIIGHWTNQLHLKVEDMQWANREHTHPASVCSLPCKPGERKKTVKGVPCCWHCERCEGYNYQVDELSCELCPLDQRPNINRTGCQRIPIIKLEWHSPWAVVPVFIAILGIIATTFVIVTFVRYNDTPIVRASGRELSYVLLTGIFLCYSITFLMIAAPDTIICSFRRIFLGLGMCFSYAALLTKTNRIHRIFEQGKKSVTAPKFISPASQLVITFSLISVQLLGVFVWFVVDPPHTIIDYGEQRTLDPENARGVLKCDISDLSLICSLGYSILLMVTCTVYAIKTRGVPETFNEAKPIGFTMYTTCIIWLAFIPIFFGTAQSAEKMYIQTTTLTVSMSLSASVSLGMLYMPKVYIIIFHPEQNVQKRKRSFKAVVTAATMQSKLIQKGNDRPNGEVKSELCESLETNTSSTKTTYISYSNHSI

SMILES | z-score
COc1cnc(-c2ccccn2)nc1Sc1c(Cl)cccc1Cl | -0.214
O=C(COC(=O)c1cccnc1SCC(=O)NCc1ccccc1)NCc1ccccc1 | -0.219
CCOc1cc(S(=O)(=O)N(Cc2ccccc2)Cc2ccccc2)c(OCC)cc1-n1cnnn1 | 0.151
CCCCn1c(NC(C)=O)c(C#N)c2nc3ccccc3nc21 | -0.341
Fc1ccccc1CNc1cc(Cl)cc(Cl)c1 | 0.0979
COc1ccc(OCCCC(=O)NCc2ccco2)cc1 | 0.959
O=C(COC(=O)c1ncc(Cl)c(Cl)c1Cl)c1ccc(Cl)s1 | -0.0905
CCC(C(=O)OCC(=O)Nc1cc(Cl)ccc1Cl)c1ccccc1 (stereo unspecified) | 0.227
Cn1nnnc1Sc1c(Cl)cccc1[N+](=O)[O-] | 0.113
O=C(CNC(=O)C1CCCCC1)Nc1ccccc1 | -0.229
N#Cc1nc(-c2ccco2)oc1N1CCN(c2cccc(Cl)c2)CC1 | -0.331
CCOC(=O)CNC(=O)c1cn(CC(C)C)c(=O)c2cc(OC)c(OC)cc12 | 0.1
CC(C)CC(=O)NC(=S)N1CCCCCC1 | 0.255
Cc1occc1-c1nnc(SCC(=O)Nc2ccccc2)n1Cc1ccccc1 | -0.4
O=C(c1ccc(COc2c(F)c(F)c(F)c(F)c2F)o1)N1CCOCC1 | -1.74
CC(=O)c1cccc(NC(=O)CC2Oc3ccc(C)cc3NC2=O)c1 (stereo unspecified) | -0.586
Cc1nnc2n(C3CCCCC3)c(=O)c3c4c(sc3n12)COC(C)(C)C4 | active: -3.22
CC(Oc1ccc(Cl)cc1Cl)c1nc(-c2ccc(NC(=O)c3ccncc3)cc2)no1 (stereo unspecified) | 0.343
CC1=CCC2C(=O)N(c3ccccc3OC(=O)c3ccccc3F)C(=O)C2C1 (stereo unspecified) | -0.238

SMILES | z-score
CCn1c(SCC(=O)Nc2cc(F)ccc2C)nnc1-c1ccccc1O | -0.432
CCCOc1ccc(-c2nc(C#N)c(N3CCc4ccccc4C3)o2)cc1 | 0.2
O=C(CCNC(=O)c1ccccc1Cl)Nc1nc(-c2ccc3ccccc3c2)cs1 | -0.106
COC(=O)c1ccccc1NC(=O)C(=O)NCC1CCCO1 (stereo unspecified) | -0.0272
COc1ccccc1-c1c(C)oc2cc(OCC(=O)OCc3ccccc3)ccc2c1=O | 1.27
CC(=O)c1c(C)[nH]c(C(=O)COC(=O)CCSc2ccccc2)c1C | 0.265
COc1cccc2[nH]c3c(N4CCC(C)CC4)ncnc3c12 | -0.0729
O=C(O)c1ccc2c(c1)C(=O)N(Cc1ccc3c(c1)OCO3)C2=O | -0.312
COc1ccc(-c2csc(NC(=O)Cn3nc(C)cc3C)n2)cc1 | 0.319
CCOc1ccc(-n2nnc3c(=O)n(CC(=O)N4CCCc5ccccc54)cnc32)cc1 | 0.852
CCCn1c(C)cc(/C=C(\C#N)C(=O)OCC(=O)Nc2cc(OC)c(OC)c(OC)c2)c1C | -0.21
Nc1nc(-c2ccco2)nn1C(=O)c1ccccc1 | 0.00452
CCOC(=O)Cn1cc(C=O)c2ccccc21 | -0.0727
COc1ccc(CN2CCSCC2)cc1O | -0.199
O=C(NC1CC1)C1=COCCO1 | -0.21
COc1ccc(CNC(=O)CN(Cc2ccc(Cl)cc2)S(C)(=O)=O)cc1 | -0.615
Cc1cc(C)c(NC(=O)C2CCCCN2C)c(C)c1 (stereo unspecified) | -0.0533
Clc1ccc(-c2nnc(-c3ccccc3)nc2N2CCSCC2)cc1 | -0.0425
O=C(CCl)Nc1ccc(Oc2cnc3ccccc3n2)cc1 | -0.78

SMILES | z-score
COC(=O)CN(c1nc(C)cc(OC)n1)S(=O)(=O)c1ccccc1 | -0.5
COc1ccccc1CN(Cc1nc2ccccc2c(=O)[nH]1)C(=O)Nc1cccc(C)c1 | -0.0538
Cc1ccc(N2C(=N)SCC2=O)cc1Cl | -0.127
CCN(CC)c1ccc(/C=N/NC(=O)CN2CCCc3ccccc32)cc1 | -0.854
Cn1c(=O)c2cc(S(=O)(=O)NCCC(=O)NCCc3ccc(Cl)cc3)ccc2n(C)c1=O | 0.3
COc1ccc(CCCc2nnc(SCC(=O)Nc3nc(C)cs3)n2C)cc1 | 0.338
CCCC(=O)NC(=S)N1CCN(c2ccc([N+](=O)[O-])cc2)CC1 | 0.00262
O=C1OC2(CCCCC2)OC(=O)C1=CNc1ccc2c(c1)OCO2 | 0.207
CCc1cccc(NC(=O)c2ccc(NS(=O)(=O)c3c(C)noc3C)cc2)c1 | 0.228
COc1ccccc1N(CN1C(=O)c2ccccc2C1=O)C(=O)c1cccc(C)c1 | -1.21
CCn1c(COc2cccc(C)c2)nc2ccccc21 | -0.292
COc1cc(NS(=O)(=O)c2ccc(NC(=S)NC(=O)C(C)(C)C)cc2)nc(OC)n1 | -0.11
CCCCNC(=O)COC(=O)c1ccc(Cl)c(S(=O)(=O)N2CCCC2)c1 | -1.75
O=C(CC1Oc2ccccc2NC1=O)NCCCN1CCCC1=O (stereo unspecified) | 1.28
Cc1ccc(OC(C)C(=O)Nc2ccc(C)c(S(=O)(=O)Nc3ccc(C)cc3C)c2)cc1 (stereo unspecified) | 0.0199
CC(C)(C)Nc1nc(C(N)=O)nc(N2CCOCC2)n1 | 0.297
O=C(Nc1ccccc1)c1ccccc1CCc1ccccc1 | -0.961
Cc1ccc(NC(=S)NCc2ccccn2)cc1 | 0.051

— PubChem BioAssay AID488969 (Vanderbilt High Throughput Screening Facility, 2010)
